{"source": "PubChem BioAssay AID1159614", "about": "(National Center for Advancing Translational Sciences (NCATS), 2016)", "note": "The whole screen tested about 45,000 compounds, of which about 65 (0.1%) were called active. Calls follow the shape of the dose curve; as a rule, active = well fitted activation curve with a large enough effect; inconclusive = small, poorly fitted or top-dose-only effect; inactive = no such curve, though single readings can be large or run the other way. This is one part of the list."}
{"biological_target": "Galactocerebrosidase (Homo sapiens) (UniProt P54803)", "sequence (P54803 whole entry, looked up)": "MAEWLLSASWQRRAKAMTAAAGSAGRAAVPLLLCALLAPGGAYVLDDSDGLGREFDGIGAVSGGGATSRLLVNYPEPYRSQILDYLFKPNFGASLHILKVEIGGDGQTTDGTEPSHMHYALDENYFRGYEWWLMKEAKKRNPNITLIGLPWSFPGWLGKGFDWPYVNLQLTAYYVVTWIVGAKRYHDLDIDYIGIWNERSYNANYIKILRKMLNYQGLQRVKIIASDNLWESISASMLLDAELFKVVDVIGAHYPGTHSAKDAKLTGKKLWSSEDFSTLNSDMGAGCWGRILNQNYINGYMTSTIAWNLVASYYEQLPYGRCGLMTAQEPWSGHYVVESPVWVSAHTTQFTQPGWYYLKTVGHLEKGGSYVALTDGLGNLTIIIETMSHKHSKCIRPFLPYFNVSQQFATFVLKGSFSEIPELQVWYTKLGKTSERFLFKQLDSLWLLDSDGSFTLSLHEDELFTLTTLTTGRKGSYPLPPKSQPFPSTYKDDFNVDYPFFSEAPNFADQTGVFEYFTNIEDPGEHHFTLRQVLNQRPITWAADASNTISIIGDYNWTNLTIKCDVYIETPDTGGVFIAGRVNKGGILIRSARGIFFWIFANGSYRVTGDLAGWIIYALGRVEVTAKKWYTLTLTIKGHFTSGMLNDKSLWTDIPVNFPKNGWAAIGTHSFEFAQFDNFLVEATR", "test": "A Novel Cell-Based Assay to Identify Small Molecules for B -Galactocerebrosidase; also: 0% is about no effect; nearly all actives have a fitted effect of over 65% in size", "conditions": "145M-Twi-hGALC-G270D cells, HMU-beta-Gal fluorescence, 48 h; series mostly up to 57.5 µM; activation: at the top concentration", "method_in_brief": "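qHTS, 1536-well; 145M-Twi-hGALC-G270D cells (WT line also made) in DMEM/F12 + 10% FBS; compound incubation on live cells; HMU-β-gal 0.1 mM final, pH 5.2, NaTC; carbonate stop; fluorescence increase = enhanced residual activity.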"}
{"smiles": "CCCOc1ccc(C(=O)Nc2ccc3oc(-c4ccncc4)nc3c2)cc1", "activation": "inactive: -19%"}
{"smiles": "CCCCOC(=O)c1c(N)n(-c2ccc(OC)cc2OC)c2nc3ccccc3nc12", "activation": "inactive: -10.3%"}
{"smiles": "CCC(Sc1nnc2c(n1)[nH]c1ccccc12)C(=O)Nc1nnc(C(C)C)s1", "note": "(configuration not stated)", "activation": "inactive: -22.4%"}
{"smiles": "Cn1nnc2c(N3CCN(c4cccc(Cl)c4)CC3)ncnc21", "activation": "inactive: -16.1%"}
{"smiles": "COCCN(Cc1cccs1)S(=O)(=O)c1cc(-c2cc(C)no2)ccc1C", "activation": "inactive: 6.13%"}
{"smiles": "COc1cccc(CNC(=O)CCS(=O)(=O)c2ccc3c(c2)oc(=O)n3C)c1", "activation": "inactive: -19%"}
{"smiles": "COCCCNC(=O)c1c(NC(=O)Cc2coc3c(C)c(C)ccc23)sc2c1CCCC2", "activation": "inactive: 11.3%"}
{"smiles": "O=C(NC1CC(=O)N(c2cccc(F)c2)C1)c1cccs1", "note": "(configuration not stated)", "activation": "inactive: -4.59%"}
{"smiles": "CCOc1ccc(C(=O)NCc2ccc3c(c2)CCN3C(=O)c2ccc(Cl)cc2)cc1", "activation": "inactive: 10.2%"}
{"smiles": "CC(C)N(C(=O)Cn1cc(SCC(=O)Nc2ccccc2F)c2ccccc21)C(C)C", "activation": "inactive: -6.48%"}
{"smiles": "Cc1cccc(-n2ncc(C(=O)N3CCOCC3)c2C2CCN(C(=O)OC(C)(C)C)CC2)c1", "activation": "inactive: 6.27%"}
{"smiles": "Cc1ccc(CCNS(=O)(=O)c2cc(-c3cc(C)no3)ccc2C)cc1", "activation": "inactive: -13.3%"}
{"smiles": "Cc1ccc(C(=O)c2cc(O)c(O)c([N+](=O)[O-])c2)cc1", "activation": "inactive: -8.44%"}
{"smiles": "Cc1ccc(C(C)C)c(OCCSc2nc(-c3ccccc3F)nc3cc(=O)[nH]n23)c1", "activation": "inactive: -12.7%"}
{"smiles": "CCc1ccc(NC(=O)c2ccc(CN3CC(=O)N4CCCCC4C3=O)cc2)cc1", "note": "(configuration not stated)", "activation": "inactive: -40%"}
{"smiles": "CCc1ccc(OCC(=O)NC(Cc2c[nH]c3ccccc23)C(=O)O)cc1", "note": "(configuration not stated)", "activation": "inactive: -11.4%"}
{"smiles": "CCCN(C(=O)c1cc2c(=O)oc3ccccc3c2s1)c1ccc(CC)cc1", "activation": "inactive: 0.469%"}
{"smiles": "CC(C)C(=O)Nc1ccc2nc(SCC(=O)N3CCCC3)sc2c1", "activation": "inactive: -11.4%"}
{"smiles": "Cc1ccccc1Nc1cc(C(=O)NCCCN2CCN(c3cccc(Cl)c3)CC2)c2ccccc2n1", "activation": "inactive: 4.29%"}
{"smiles": "Cc1c(Cl)cccc1NC(=O)N1CCN(C(=O)c2nsc3ccccc23)CC1", "activation": "inactive: -18%"}
{"smiles": "CN(Cc1ccccc1)C(=O)c1cn(C)c2ccc(S(=O)(=O)N3CCCCC3)cc2c1=O", "activation": "inactive: -4%"}
{"smiles": "COc1cccc(OCc2nc3ccccc3n2CCOc2ccc(C)cc2)c1", "activation": "inactive: -13.8%"}
{"smiles": "COc1cccc(-n2c(=O)c3c(C)c(C)sc3n(CC(=O)NCCc3ccc(OC)c(OC)c3)c2=O)c1", "activation": "inactive: -7.7%"}
{"smiles": "COc1cccc(CNC(=O)c2cc(C)nc3c2c(C)nn3-c2ccc(C)cc2)c1", "activation": "inactive: -10.8%"}
{"smiles": "COc1cc(OC)c(NC(=O)C2CCN(S(=O)(=O)c3c(C)noc3/C=C/c3c(C)cc(C)cc3C)CC2)cc1Cl", "activation": "inactive: -11%"}
{"smiles": "COc1ccc(OC)c(NC(=O)CSc2ccc(-c3cccs3)nn2)c1", "activation": "inactive: -11.4%"}
{"smiles": "Cc1ccc(Cn2c(C(=O)O)c(CNCc3ccc(OC(C)C)cc3)c3ccc(C)cc32)cc1", "activation": "inactive: -4.98%"}
